# Test results from article PMC4336329 (PLoS ONE, 2015).
# The whole screen tested about 310,000 compounds, of which about 2,200 (0.71%) showed an effect of 50% or more. Effects have a minus sign here. Some of the results follow.
# Target: human ether-à-go-go-related gene (hERG) potassium channel (human, UniProt Q12809)
# Assay: primary screen, population patch clamp on CHO cells stably expressing hERG
# Chain of human ether-à-go-go-related gene (hERG) potassium channel (Q12809 whole entry, looked up): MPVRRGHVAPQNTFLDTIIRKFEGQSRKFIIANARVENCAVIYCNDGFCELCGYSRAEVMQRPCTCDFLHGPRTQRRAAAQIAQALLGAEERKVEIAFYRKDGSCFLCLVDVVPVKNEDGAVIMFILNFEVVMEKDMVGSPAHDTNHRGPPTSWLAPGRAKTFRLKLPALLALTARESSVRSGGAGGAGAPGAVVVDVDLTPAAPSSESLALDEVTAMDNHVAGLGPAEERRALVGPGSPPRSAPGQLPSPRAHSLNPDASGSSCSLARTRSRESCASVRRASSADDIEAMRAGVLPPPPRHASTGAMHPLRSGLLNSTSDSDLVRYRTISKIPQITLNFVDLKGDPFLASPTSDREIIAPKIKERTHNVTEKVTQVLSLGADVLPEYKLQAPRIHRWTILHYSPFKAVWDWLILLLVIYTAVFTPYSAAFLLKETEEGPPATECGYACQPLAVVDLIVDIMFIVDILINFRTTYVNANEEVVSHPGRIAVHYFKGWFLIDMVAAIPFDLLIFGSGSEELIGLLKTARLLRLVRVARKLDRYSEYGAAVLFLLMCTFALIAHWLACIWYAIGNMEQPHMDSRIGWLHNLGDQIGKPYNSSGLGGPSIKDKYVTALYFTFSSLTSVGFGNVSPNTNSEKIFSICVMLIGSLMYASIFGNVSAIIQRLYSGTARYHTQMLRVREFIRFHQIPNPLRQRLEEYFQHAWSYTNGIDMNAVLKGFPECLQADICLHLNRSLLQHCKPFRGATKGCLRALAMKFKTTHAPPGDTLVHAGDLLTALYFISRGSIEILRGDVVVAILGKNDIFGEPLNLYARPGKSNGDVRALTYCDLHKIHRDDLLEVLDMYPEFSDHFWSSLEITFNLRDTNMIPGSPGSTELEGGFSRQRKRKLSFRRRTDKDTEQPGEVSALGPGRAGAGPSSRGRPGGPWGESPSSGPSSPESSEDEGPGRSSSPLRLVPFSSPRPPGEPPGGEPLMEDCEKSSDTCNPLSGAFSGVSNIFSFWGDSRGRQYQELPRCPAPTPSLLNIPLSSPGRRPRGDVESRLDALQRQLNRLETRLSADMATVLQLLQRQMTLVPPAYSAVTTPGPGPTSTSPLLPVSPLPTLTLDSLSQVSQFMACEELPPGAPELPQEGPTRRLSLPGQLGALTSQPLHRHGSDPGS
row,Structure (SMILES),"hERG current change (%, negative = inhibition) at 1uM"
1,Cc1cc(C)n(C(=O)c2cc3c(s2)CCCC3)n1,12%
2,Nc1nnc(SCC(=O)Nc2cc(S(=O)(=O)N3CCOCC3)ccc2N2CCCC2)s1,0.703%
3,COc1ccc(S(=O)(=O)N2CCC(C)CC2)cc1OC,10.9%
4,COc1ccc(C2=NN(C3=NN=C(N)Cc4ncnn43)C(O)(C(F)(F)F)C2)cc1 (centres unmarked),11.1%
5,COc1cc(OC)cc(C(=O)NNC(=S)NCc2ccco2)c1,1.72%
6,CC1(c2nnc(Cc3ccccc3)o2)CC(c2ccncc2)=NO1 (centres unmarked),7.52%
7,Cc1ccc(Cl)cc1N1CCN(C(=O)c2ccc(NC3=NC4CS(=O)(=O)CC4S3)cc2)CC1 (centres unmarked),16.5%
8,O=C(c1ccc2c(c1)OCO2)N1CCC(Cc2ccccc2)CC1,8.92%
9,CC12CN3CC(C)(CN(C1)C3c1ccc(Cl)cc1Cl)C2O (centres unmarked),0.586%
10,OC(c1ccc(Cl)cc1)C(O)c1nc2ccccc2[nH]1 (centres unmarked),1.71%
11,O=C(COC(=O)c1ccccc1O)NCCCc1ccccc1,14.3%
12,Cc1cc(C)cc(N=c2c([N+](=O)[O-])nn(-c3cccc(Cl)c3)n2O)c1,4.71%
13,Cc1ccc(N2C(=O)[C@@H]3C(C(=O)CCN4C(=O)c5ccccc5C4=O)=NN[C@@H]3C2=O)cc1,10.5%
14,CCOc1ccc(N(CC)S(=O)(=O)c2c(C)[nH]c(=O)[nH]c2=O)cc1,14.9%
15,CCn1nc(C)c(CNC(=O)CCc2nnc(Cc3c[nH]c4ccccc34)o2)c1C,10.6%
16,COc1ccccc1-n1c(C)nnc1SCC(=O)Nc1cc(C)cc(C)c1,7.49%
17,COc1cc(C(=O)N/N=C/c2cn(Cc3ccccc3)c3ccccc23)ccc1O,-3.34%
18,O=C(Nc1ccccc1C(F)(F)F)NC1CCCCC1,7.26%
19,Cn1c(=O)c2ccccc2n(Cc2ccccc2F)c1=O,9.49%

row,Structure (SMILES),"hERG current change (%, negative = inhibition) at 1uM"
1,COc1ccc(S(=O)(=O)Nc2cc(C(C)C)c(O)cc2C)cc1,8.9%
2,CC1CCCCN1C(=O)CN1C(=O)NC2(CCCCC2C)C1=O (centres unmarked),5.35%
3,CC(=O)NC(=C(Cl)Cl)S(=O)(=O)c1ccccc1,18.9%
4,CCNc1nc(NC(C)C)nc(N(C#N)C(C)C(=O)N(C)C)n1 (centres unmarked),0.935%
5,O=C(CSc1nnc(CNC(=O)c2ccccc2F)o1)NCc1ccco1,17.8%
6,CNC(=O)c1ccc(NC(=O)/C=C/c2cccc(F)c2)cc1,-0.619%
7,CNC(=O)c1c(NC(=O)C2=COCCO2)sc2c1CCN(C(=O)OC)C2,7.39%
8,O=C(NN1C(=O)C2C3CCC(O3)C2C1=O)c1ccc(Br)o1 (centres unmarked),7.31%
9,COc1ccc(NC(=O)CSc2nc3c(c(=O)n2-c2ccccc2OC)SCC3)cc1,6.89%
10,O=C(CSc1nnc(-c2ccc(O)cc2)n1Cc1ccco1)c1cccs1,-6.28%
11,CN(C)CCCN(C(=O)c1ccc(Br)s1)c1nc2cc3c(cc2s1)OCCO3.Cl,4.13%
12,COC(=O)[C@H](CCSC)NC(=O)N1CCN(c2cccc(C(F)(F)F)c2)CC1,6.2%
13,O=C(/C=C/c1ccc(Cl)cc1)NC(=S)Nc1ccc(CN2CCOCC2)cc1,11.6%
14,CCCCN(S(=O)(=O)c1ccccc1)S(=O)(=O)c1ccccc1,13.9%
15,Cc1cc(C)n(CC(=O)NNC(=O)c2cccc(C(F)(F)F)c2)n1,5.29%
16,CC(=O)N(C)c1ccc(N=C2C(=O)Nc3ccccc32)cc1,9.53%
17,COc1ccc(CC(=O)NCC2CCCN(Cc3cccc(C(F)(F)F)c3)C2)cc1 (centres unmarked),5.75%
18,CC(C)(C)c1nnc(N/N=C/c2cc(Br)ccc2O)n(N)c1=O,5.69%
19,Cc1ccc(S(=O)(=O)N(CC(O)CN2CCCCC2)c2cccc([N+](=O)[O-])c2)cc1 (centres unmarked),-73.1%

row,Structure (SMILES),"hERG current change (%, negative = inhibition) at 1uM"
1,O=C(N/N=C/c1ccc([N+](=O)[O-])s1)c1ccncc1,8.25%
2,Cc1cccc(NC(=O)/C(=C\c2ccco2)NC(=O)c2cccs2)c1,7.02%
3,CC12CCC(C(=O)NNC(=O)c3ccc(F)cc3)(OC1=O)C2(C)C (centres unmarked),14%
4,CN(CC(=O)Nc1ccc(F)c(F)c1F)C(=O)Cn1cnc2c1c(=O)n(C)c(=O)n2C,6.32%
5,CCOC(=O)c1sc(NC(=O)CSc2nnnn2-c2ccccc2)c(C(=O)OCC)c1C,11.4%
6,CCOC(=O)c1[nH]c(C(=O)O)c(OC(=O)CC)c1C,14.5%
7,CN1CCN(c2ccc(C(=O)c3ccc(F)cc3)cc2)CC1,-5.8%
8,Cc1ccc(NS(=O)(=O)c2ccc3oc(=O)ccc3c2)cc1Cl,13.8%
9,Nc1cc(Cl)nc(N/N=C/c2c(O)ccc3ccccc23)n1,13.8%
10,CC1=C(C(=O)N2CCOCC2)C(c2cccs2)NC(=O)N1 (centres unmarked),10.7%
11,CCN(CC)S(=O)(=O)c1cccc(C(=O)OC2CCOC2=O)c1 (centres unmarked),8.03%
12,O=C(Nc1ccc(F)cc1F)c1ccc(-n2cccn2)nc1,1.37%
13,Cc1ccc(NC(=O)CN2C(=O)N/C(=C/c3ccc(C)o3)C2=O)cc1,7.31%
14,COc1cc(-c2nn3c(-c4cccnc4)nnc3s2)cc(OC)c1OC,3.07%
15,COc1ccc2cc(C(=O)C3CCCN(C(=O)c4cc5nc(C)cc(C)n5n4)C3)ccc2c1 (centres unmarked),-5.02%
16,Cc1ccc(NC(=O)COc2ncnc3cc([N+](=O)[O-])ccc23)cc1S(=O)(=O)N1CCOCC1,3%
17,Cc1ccc(N2C(=O)C3C(C(=O)c4ccccc4)=NN(c4ccccc4)C3C2=O)cc1 (centres unmarked),15.6%
18,CCOP(=O)(OCC)/C(C#N)=C/c1ccc([N+](=O)[O-])cc1,-4.07%
